# From PMC6919601, “Identification of Plasmodium dipeptidyl aminopeptidase allosteric inhibitors by high throughput screening” (PLoS ONE, 2019)
# Several values for one entry are separate records, joined by “and”; a condition that tells them apart may be missing. Equal entries are not always repeated. About 230 (0.21%) of roughly 110,000 compounds showed an effect of 50% or more. Some of the results follow.
# Molecular target: DPAP1 (Plasmodium falciparum, UniProt Q8IIJ9)
# Assay: primary screen, percent inhibition; read by cleavage of a fluorogenic dipeptide substrate; higher = more effect of the substance
# Parameters: species or system P. falciparum D10 trophozoite lysates; single well
# 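Note: 30 min substrate incubation versus DMSO and 10 µM JCP410 controls.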
# Sequence of DPAP1 (Q8IIJ9 whole entry, looked up): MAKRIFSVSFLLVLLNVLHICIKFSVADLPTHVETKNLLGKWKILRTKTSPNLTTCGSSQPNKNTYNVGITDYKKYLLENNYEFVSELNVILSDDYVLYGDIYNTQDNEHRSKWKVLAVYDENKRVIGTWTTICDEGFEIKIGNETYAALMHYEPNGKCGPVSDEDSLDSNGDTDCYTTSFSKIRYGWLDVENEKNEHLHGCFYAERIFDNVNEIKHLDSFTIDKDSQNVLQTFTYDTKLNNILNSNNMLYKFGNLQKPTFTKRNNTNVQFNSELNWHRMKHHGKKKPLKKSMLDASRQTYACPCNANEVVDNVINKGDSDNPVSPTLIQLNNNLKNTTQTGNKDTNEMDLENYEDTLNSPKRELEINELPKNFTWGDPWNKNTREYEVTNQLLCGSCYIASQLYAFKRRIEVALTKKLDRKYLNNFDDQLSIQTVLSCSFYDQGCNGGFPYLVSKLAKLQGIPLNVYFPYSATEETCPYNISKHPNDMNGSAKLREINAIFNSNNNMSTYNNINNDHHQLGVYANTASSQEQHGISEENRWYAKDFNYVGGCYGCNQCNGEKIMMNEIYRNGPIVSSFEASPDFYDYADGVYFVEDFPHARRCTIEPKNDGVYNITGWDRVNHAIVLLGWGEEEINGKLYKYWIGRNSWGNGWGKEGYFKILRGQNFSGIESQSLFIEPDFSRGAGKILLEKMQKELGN
row,Structure (SMILES),% Inhibition @ 10 uM
1,O=S(=O)(Nc1nc2ccccc2nc1NCc1ccccc1)c1ccccc1,-1.45%
2,CO/N=C/c1ccc(OCc2c(C)c(C)c(Br)c(C)c2C)c(OC)c1,-2.42%
3,Cc1ccc(Cc2c(O)n3c(nc2=O)SCCC3)cc1,-2.19%
4,CCOc1ccccc1NC(=O)C1C(C(=O)O)C2C=CC1C21CC1 (stereo not shown),6.74%
5,Cc1ccc(N(CC(=O)N2CCCC2)S(C)(=O)=O)cc1Cl,-4.72%
6,O=c1/c(=C/c2cccc(C(F)(F)F)c2)sc2nc3ccccc3n12,-2.54% and -0.357%
7,Cn1ccnc1C(O)c1cccc2ccccc12 (stereo not shown),-0.436%
8,Cc1cc(C)c(C)c(OCC(=O)N2CCN(c3ccccc3F)CC2)c1,-3.77%
9,CC1=C(C(=O)Nc2ccc(F)cc2F)C(c2ccc3c(c2)OCO3)C2=C(O)CC(C)(C)CC2=N1 (stereo not shown),0.121%
10,O=C(Nc1cc(C(F)(F)F)ccc1Cl)[C@@H]1C2C=CC(C2)[C@@H]1C(=O)O (stereo partly shown),-0.902%
11,COCC(=O)n1nc(-c2ccccc2)nc1NCc1ccco1,0.628%
12,Cc1ccc(Cn2cc(/C=C3\SC(=O)N(C)C3=O)c3ccccc32)cc1,0.484%
13,O=C(O)C1CSC(c2cccc(Br)c2)N1 (stereo not shown),2.47%
14,CN1C(=O)CC(C(=O)Nc2ccccc2F)S/C1=N\c1ccc(Cl)cc1 (stereo not shown),-1.02%
15,CN(CC(=O)NCc1ccc(C(=O)O)cc1)S(=O)(=O)c1cccc2nsnc12,2%
16,O=C1c2ccccc2N(Cc2ccc(Cl)cc2)C2=NCCN12,1.72%
17,COc1ccccc1C1CC(=O)NC(C)=C1C(=O)OCC1CCCO1 (stereo not shown),4.78%
18,O=S(=O)(Cc1ccc(F)cc1)N1CCC(c2nc(O)c3nnn(Cc4ccccc4)c3n2)CC1,6.85%
19,CCC1=C(c2ccc(C)cc2)S(=O)(=O)N=C1N1CCC(C(=O)N2CCC3(CC2)OCCO3)CC1,-3.41%
20,CCOCCCNC(=O)C1=C(C)C(=O)OC12CCCCC2,1.55%
21,CC(CCc1ccccc1)N1CCN(c2ccccc2F)CC1 (stereo not shown),-4.14%
22,CCN(CC)S(=O)(=O)c1nnc(NC(=O)COc2ccc(F)cc2)s1,-5.37%
23,COc1ccc(S(=O)(=O)N(CC(=O)N2CCN(c3ccccc3F)CC2)Cc2ccccc2)cc1,1.27%
24,Cc1ccc(C23CC4CC(CC(C(=O)NCC(=O)O)(C4)C2)C3)cc1,-3.06%
25,COc1cc(C(=O)O)c(-n2c(C)ccc2C)cc1OC,2.94%

row,Structure (SMILES),% Inhibition @ 10 uM
1,Cc1ccc(S(=O)Cc2ccc(C(=O)NCCc3cccs3)o2)cc1 (stereo not shown),-6.36%
2,C=CCn1c(SCCCCCC)nc(O)cc1=O,-1.62%
3,CCOC(=O)C1CCCN(C/C=C/c2ccccc2)C1 (stereo not shown),-0.262%
4,CC(C)(C)c1ccc(C(=O)NCc2nc(-c3ccc(Cl)cc3)no2)cc1,6.78%
5,Oc1cc(-c2ccccc2)nc2nc3ccccc3n12,-7.15%
6,CC1=Nc2ncnn2C(c2ccccn2)/C1=C(\O)OC(C)C (stereo not shown),0.565%
7,Cc1ccc(C(=O)O)cc1-c1ccc(/C=C2/NC(=O)NC2=O)o1,3.15%
8,Cc1ccccc1Cn1c(CN2CCC(C)CC2)nc2c1c(=O)n(C)c(=O)n2C,-0.499%
9,CC(O)(c1ccc(F)cc1)C(c1ccccc1)N1CCOCC1 (stereo not shown),-1.96%
10,O=C(Cn1ccc2ccccc2c1=O)NCCC(=O)N1CCC(N2CCCCC2)CC1,-2.4%
11,COc1ccc(S(=O)(=O)c2nnn3c2nc(O)c2ccccc23)cc1,2.33%
12,CC(C(=O)NCc1ccc(F)cc1)n1ncn2cccc2c1=O (stereo not shown),-5.97%
13,Cc1ccc(C2CC(=O)NC(SCC(N)=O)=C2C#N)o1 (stereo not shown),-1.64%
14,COc1ccc2c(O)c(-c3c(C)cc(C)cc3C)c(O)nc2c1,-5.92%
15,Cc1nc2ccccc2c2oc(C(=O)NC3CCN(Cc4ccccc4)CC3)cc12,-5.25%
16,CC(C)CN(CCNS(=O)(=O)c1csc(C(N)=O)c1)CC(C)C,-5.31%
17,CC(=O)N1CCc2c([nH]c3ccccc23)C1c1cccc(F)c1 (stereo not shown),-3.8%
18,CC1=C(C(=O)OCc2ccccc2)C(c2ccccc2C(F)(F)F)CC(=O)N1 (stereo not shown),1.37%
19,Cc1nn(CC(=O)NCc2ccc3c(c2)OCO3)c(C)c1Cl,-2.79%
20,Clc1ccccc1CN1CCN(c2ccccc2Cl)CC1,-3.56%
21,O=[N+]([O-])c1cccc(C2=NOc3cc(Cl)ccc3N2)c1,-2.63%
22,COc1cc(OC)c(C2C3=C(O)CCCC3=Nc3nc4ccccc4n32)cc1OC (stereo not shown),3.32%
23,CCOC(=O)C1CCN(C2CCN(CC)CC2)CC1,0.162%
24,CCOc1ccc(CC(=O)Nc2ccc(C)c(C)c2)cc1OCC,-2.28%
25,Cc1ccccc1Cn1cc(CCC(=O)N2CCOCC2)c2ccccc21,-3.15%

row,Structure (SMILES),% Inhibition @ 10 uM
1,CN1CCOC(c2ccccc2)(C(O)(c2ccccc2)c2ccccc2)C1=O (stereo not shown),-5.1%
2,Cc1ccc(C(=O)N(Cc2ccccc2)C(C)C)cc1[N+](=O)[O-],-5.32%
3,CCCOc1ccc(C2c3c(oc4ccccc4c3=O)C(=O)N2c2nccs2)cc1 (stereo not shown),-6.23%
4,Cc1cc(C)c(NC(=O)Cn2cnc3ccccc3c2=O)c(C)c1,-1.28%
5,Clc1ccc(OCCCCCCN2CCCC2)c(Cl)c1,1.43%
6,COC(=O)c1cc2sc(Cl)cc2[nH]1,-3.34%
7,O=C(Nc1sc2c(c1C(=O)Nc1ccccc1)CCC2)c1ccccc1,-1.96%
8,CC1(C)CC(=O)c2cc(C#N)c(SCc3ccccc3)nc2C1,-4.93%
9,Cc1ccc(CNC(=O)c2cc3c(-c4ccccc4F)nn(C)c3s2)cc1,0.317%
10,O=C(c1cc2nc(-c3cccs3)cc(C(F)(F)F)n2n1)N1CCN(c2ccccc2)CC1,-5.28%
11,CN1CCC(C2(O)c3ccccc3CCc3ccccc32)CC1,-2.79%
12,Cc1ccc(C(=O)Nc2ccc(C)c(Cl)c2)o1,5.69%
13,CC1CCN(CCCNC(=O)C2CCCN(S(C)(=O)=O)C2)CC1 (stereo not shown),0.514%
14,O=c1nc2s/c(=C/c3cccs3)c(=O)n2nc1Cc1ccc(F)cc1,1.23%
15,COc1ccc(C(=O)CSc2ncnc3sc(C)c(C)c23)cc1,-1.93%
16,O=C(O)c1ccc(NC(=O)c2ccc(C(F)(F)F)cc2)cc1,-3.04%
17,CC(=O)/N=C1\SC2CS(=O)(=O)CC2N1Cc1ccccc1Cl (stereo not shown),3.81%
18,CC(C)(C)c1[nH]nc2c1C(c1ccc(Br)cc1)C(C#N)=C(N)O2 (stereo not shown),2.69%
19,COc1ccc(/C=C/c2sc(C)c(-c3ccccc3)[n+]2CCCS(=O)(=O)O)c(OC)c1,0.413%
20,Cc1cc(C)c(S(N)(=O)=O)cc1S(N)(=O)=O,-3.55%
21,FC(F)(F)c1cccc(CN2CCN(c3ccc(Cl)cc3)CC2)c1,1.63%
22,O=C(NCCc1ccccc1)c1nc(Cn2c(C(F)(F)F)nc3ccccc32)no1,-1.85%
23,CCOC(=O)c1c(NC(=O)CN2CCCC2)sc(C(C)=O)c1C,1.84%
24,CCCCNS(=O)(=O)c1ccc(NC(=O)Cc2ccc(C)cc2)cc1,-4.71%
25,Cc1cc(C)n2nc(CCCCc3nc4nc(C)cc(C)n4n3)nc2n1,-2.37%

row,Structure (SMILES),% Inhibition @ 10 uM
1,Cc1cc2c(cc1/C=C1\SC(Nc3ccccc3F)=NC1=O)OCO2,2.95%
2,CC(=O)N1N=C(c2ccccc2)CC1c1ccc(C)cc1 (stereo not shown),0.528%
3,CC(C)C[C@H](NC(=O)c1ccc2cc[nH]c2c1)C(=O)NCC#N,5.05%
4,Cc1cc(NCc2ccco2)nc2ccccc12,-0.233%
5,CCCNC(=O)Cn1c(=O)cc(C)c2c(C)nn(-c3cccc(Cl)c3C)c21,2.65%
6,CCCCn1c(=N)n(CCCOc2ccccc2)c2ccccc21,-2.21%
7,CC(C)(C)Oc1ncc(-c2ccncc2)c(OC(C)(C)C)n1,-0.46%
8,O=[N+]([O-])c1ccc(-c2cn3ccccc3n2)cc1,2.76%
9,Cc1nc(CN2CCN(C(=O)c3ccc(Br)cc3)CC2)cs1,-7.5%
10,N#CCNC(=O)C1(NC(=O)c2cccc(Br)c2)CCCCC1,4.45%
11,CC1CN(C(=O)C2CCCC2)C(C)CN1C(=O)C1CCCC1 (stereo not shown),0.161%
12,CC1(C)Cc2c(sc(NC(=O)c3ccccc3Cl)c2C(=O)O)CO1,-6.69%
13,CC(NC(=O)C(=O)NCc1ccc(Cl)cc1)c1ccccc1 (stereo not shown),-4.01%
14,COc1ccccc1C1C2=C(O)CC(C)(C)CC2=NC(C)=C1C(=O)Nc1c(F)cccc1F (stereo not shown),-5.34%
15,COc1cc(OC)cc(C(=O)Nc2ccc(F)c(Cl)c2)c1,3.44%
16,O=C1c2cccnc2C(=O)N1Cc1ccc(S(=O)(=O)NCCc2ccc(Cl)cc2)s1,-3.66%
17,Cc1ccccc1OCC(=O)Nc1cccnc1,-4.72%
18,O=C(NCCN1CCN(Cc2ccccc2)CC1)C1c2ccccc2C(=O)N2CCc3ccccc3C12 (stereo not shown),0.231%
19,O=C(O)C1C2CCC(O2)C1C(=O)Nc1cccc(O)c1 (stereo not shown),0.231%
20,COc1cc(/C=C2/C(=N)N3C=C(C)SC3=NC2=O)ccc1OCc1cc(=O)n2nc(C)sc2n1,-7.65%
21,O=C(CN1C(=O)c2ccccc2C1=O)Nc1ccc(Cl)cn1,1.37%
22,COc1cccc(N2CCN(Cc3cccc(Oc4ccc(Cl)cc4)c3)CC2)c1,-5.31%
23,CCn1c2ccccc2c2cc(CN3CCCC3)ccc21,-2.21%
24,CCCN(CCO)CC1CCCCC1,-0.0494%
25,O=C(NCc1ccccc1Cl)C1CCN(S(=O)(=O)c2ccc(F)cc2)CC1,-1.92%
